PubChem BioAssay AID1508649 (National Center for Advancing Translational Sciences (NCATS), 2021)
The whole screen tested about 43,000 compounds, of which about 830 (1.9%) were called active. Inconclusive means that the source gave no clear call. Such entries were picked first, then a sample of the others. Rule for the calls: active = clear falling dose curves in both reporters; inconclusive = both reporters move, but less clearly or upward; inactive = either reporter flat; the % is the NLuc reporter signal. No potency is given beside an inconclusive call; the fits are too rough.

assay: Cell-based coincidence reporter assay to measure PMP22 gene transcription in S16 Pmp22-F2sN cells - Primary screen; conditions: S16 Pmp22-F2sN Schwann cells (luciferase reporters placed in the Pmp22 gene), FLuc/NLuc coincidence luminescence, 24 h; measured here: NLuc reporter readout, at 57.5 µM (top of the series); activity change, negative = inhibition: at the top concentration
How it was run: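 Reporter cells (S16 Pmp22-F2sN, 500–1,000 per well) exposed to compounds for 24 h, 37C, 5% CO2; lysis with FLuc read after 10 min, then Stop&Glo and NLuc read after 10 min.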
% is set by controls: 0 for no effect and ±100 for the full control effect; potency is the fitted concentration of half-maximal effect; tags give direction and shape of the fitted curve.

Structure (SMILES)	activity change, negative = inhibition	Potency
COc1cccc(CNC(=O)c2nnn(CC(=O)Nc3cc(Cl)ccc3C)c2N)c1	inactive: -26.4%	
CCCc1nn2c(=O)cc(COC(=O)c3cccc(NC(=O)CCc4ccccc4)c3)nc2s1	inactive: -29.9%	
CC1CCN(C(=O)c2c(NC(=O)c3ccccc3F)sc3c2CCC(C(C)(C)C)C3)CC1 (centres undefined)		inconclusive [phenotype inactive, single point]
CCOc1ccc(NC(=O)c2sc3nc4c(cc3c2N)CCCCCC4)cc1		inconclusive [phenotype inactive, partial curve, poor fit]
Cc1cccc(N2CCN(C(=O)c3ccc4c(c3)N(Cc3ccccc3F)C(=O)c3ccccc3S4=O)CC2C)c1 (centres undefined)		active: 9.04 µM
COc1cc2c(=O)c(C(=O)c3ccc(C)c(C)c3)cn(Cc3ccccc3)c2cc1OC		inconclusive [phenotype inactive, partial curve]
Cc1ccc2nc(COc3ccc(NC(=O)COc4ccccc4F)cc3)cc(=O)n2c1	inactive: -12.1%	
Cc1cccc(OCCSc2nc3ccccc3n2CC(=O)N2CCCCC2)c1C		inconclusive [phenotype inactive, single point]
CCN(Cc1ccccc1)Cc1c(O)ccc2c(=O)c(-c3ccccc3OC)c(C(F)(F)F)oc12		inconclusive [phenotype inactive, single point]
CCCOC(=O)c1c(C)oc2c1cc(NS(=O)(=O)c1ccc(OCC)cc1)c1ccccc12		active: 8.91 µM
CCc1c(C)sc2c1CCN(C(=O)Nc1ccccc1C(F)(F)F)C2c1ccccc1 (centres undefined)		inconclusive [phenotype inactive, single point]
Cc1ccc(C(Nc2ccccn2)c2ccc3cccnc3c2O)cc1 (centres undefined)		inconclusive [phenotype inactive, partial curve]
COc1ccc(OCC(=O)Nc2ccc(C(=O)OCc3cc(=O)n4nc(C)sc4n3)cc2)cc1		inconclusive [phenotype inactive, single point]
Cc1ccc(CS(=O)(=O)c2cn(CC(=O)N(C)c3ccccc3)c3ccccc23)cc1		inconclusive [phenotype inactive, single point]
COc1ccccc1Nc1nn2c(=O)c3ccc(C(=O)N4CCC(C)CC4)cc3nc2s1		inconclusive [phenotype inactive, single point]
CCOc1cccc2sc(N(Cc3cccnc3)C(=O)C3CCCCC3)nc12		inconclusive [phenotype inactive, single point]
O=C(CCCCn1c(=O)c2ccccc2n(Cc2ccc(Cl)cc2)c1=O)NCc1ccccc1Cl		inconclusive [phenotype inactive, single point]
Cc1ccc(-c2cc(C(=O)NC(C)c3ccccc3)c3ccccc3n2)cc1C (centres undefined)	inactive: 9.8%	
CCCS(=O)(=O)c1ncc(Cl)c(C(=O)N2CCN(c3ccc(OC)cc3)CC2)n1		active: 5.97 µM
Cc1ccc(CNc2ncnc3c2nc2n3CCCC2)cc1	inactive: -33.2%	

Structure (SMILES)	activity change, negative = inhibition	Potency
COc1cccc(CNC(=O)CCCN2C(=O)CCn3nc(-c4cccn4C)cc32)c1		inconclusive [phenotype inactive, partial curve, poor fit]
Cc1cc(C)cc(Nc2cc(C)nc3nncn23)c1	inactive: -7.16%	
COc1ccc(-c2c(C)nn3c(N4CCN(c5ccccc5)CC4)cc(C)nc23)cc1OC		active: 17 µM
CCOCCCNC(=O)NC(CCC(C)C)c1c(-n2cccc2)sc2c1CCN(C)C2 (centres undefined)		inconclusive [phenotype inactive, partial curve, poor fit]
NS(=O)(=O)c1ccc(CCNC(=O)c2nc(SCc3ccccc3F)ncc2Cl)cc1	inactive: 6.45%	
CCc1ccc(-n2c(-c3ccccc3)c(C)n3c4c(=O)n(C)c(=O)n(C)c4nc23)cc1	inactive: -4.57%	
COc1ccc(CN2C(=O)c3oc4ccccc4c(=O)c3C2c2ccc(O)cc2)cc1 (centres undefined)	inactive: -4.06%	
CCCN1C(C(=O)c2ccccc2)=C(OC(=O)COc2ccccc2)c2ccccc2S1(=O)=O		inconclusive [phenotype inactive, single point]
CCC(C(=O)Nc1cccc(Cl)c1C)n1nc(-c2ccc(C)cc2)ccc1=O (centres undefined)		inconclusive [phenotype inactive, partial curve, poor fit]
Cc1ccc(N2C(=O)CSC23C(=O)N(CC(=O)NCCc2ccccc2)c2ccccc23)cc1C (centres undefined)	inactive: -14.4%	
COc1ccc(OC)c(-c2cc(C(=O)NCCc3ccccc3)c3c(-c4ccc(C)cc4)[nH]nc3n2)c1		inconclusive [phenotype inactive, single point]
COc1ccc(N2CCN(C(=O)C3CCCN(S(=O)(=O)c4ccc5c(c4)CCCN5C(C)=O)C3)CC2)cc1 (centres undefined)		active: 14.1 µM
CSc1ccc(CCNC(=O)c2cnn(-c3ccccc3)c2-n2cccc2)cc1		inconclusive [phenotype inactive, partial curve, poor fit]
COc1cccc(Cn2nnc(C(=O)Nc3cc(C)ccc3C)c2N)c1		inconclusive [phenotype inactive, partial curve, poor fit]
COc1ccc(-c2cn3c(n2)sc2cc(C(=O)NCCc4ccc(OC)cc4OC)ccc23)cc1		inconclusive [phenotype inactive, single point]
CCOc1ccc(CNS(=O)(=O)c2ccc(-c3coc(C)n3)cc2)cc1OC		inconclusive [phenotype inactive, single point]
CCOc1ccc(N(CC)S(=O)(=O)N2CCCC(C(=O)NCCc3ccc(OC)cc3)C2)cc1 (centres undefined)		inconclusive [phenotype inactive, single point]
CCc1ccccc1NC(=O)CSc1ncc(S(=O)(=O)c2ccc(C(C)C)cc2)c(N)n1		active: 17.9 µM
CC1=C(C(=O)Nc2ccc(Cl)cc2)C(c2ccc(C(F)(F)F)cc2)n2nnnc2N1 (centres undefined)		inconclusive [phenotype inactive, single point]
